# Assay results from publication PMC4336329 (PLoS ONE, 2015).
# Out of some 310,000 compounds screened, about 14,000 (4.5%) showed an effect of 50% or more. The effect is printed as a negative number. The list shows a part of the results.
# Biological target: human ether-à-go-go-related gene (hERG) potassium channel (human, UniProt Q12809)
# Assay: primary screen, population patch clamp on CHO cells stably expressing hERG
# 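Note: peak tail current of the secondary pulse compared with the same well before compound.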
# Sequence of human ether-à-go-go-related gene (hERG) potassium channel (Q12809 whole entry, looked up): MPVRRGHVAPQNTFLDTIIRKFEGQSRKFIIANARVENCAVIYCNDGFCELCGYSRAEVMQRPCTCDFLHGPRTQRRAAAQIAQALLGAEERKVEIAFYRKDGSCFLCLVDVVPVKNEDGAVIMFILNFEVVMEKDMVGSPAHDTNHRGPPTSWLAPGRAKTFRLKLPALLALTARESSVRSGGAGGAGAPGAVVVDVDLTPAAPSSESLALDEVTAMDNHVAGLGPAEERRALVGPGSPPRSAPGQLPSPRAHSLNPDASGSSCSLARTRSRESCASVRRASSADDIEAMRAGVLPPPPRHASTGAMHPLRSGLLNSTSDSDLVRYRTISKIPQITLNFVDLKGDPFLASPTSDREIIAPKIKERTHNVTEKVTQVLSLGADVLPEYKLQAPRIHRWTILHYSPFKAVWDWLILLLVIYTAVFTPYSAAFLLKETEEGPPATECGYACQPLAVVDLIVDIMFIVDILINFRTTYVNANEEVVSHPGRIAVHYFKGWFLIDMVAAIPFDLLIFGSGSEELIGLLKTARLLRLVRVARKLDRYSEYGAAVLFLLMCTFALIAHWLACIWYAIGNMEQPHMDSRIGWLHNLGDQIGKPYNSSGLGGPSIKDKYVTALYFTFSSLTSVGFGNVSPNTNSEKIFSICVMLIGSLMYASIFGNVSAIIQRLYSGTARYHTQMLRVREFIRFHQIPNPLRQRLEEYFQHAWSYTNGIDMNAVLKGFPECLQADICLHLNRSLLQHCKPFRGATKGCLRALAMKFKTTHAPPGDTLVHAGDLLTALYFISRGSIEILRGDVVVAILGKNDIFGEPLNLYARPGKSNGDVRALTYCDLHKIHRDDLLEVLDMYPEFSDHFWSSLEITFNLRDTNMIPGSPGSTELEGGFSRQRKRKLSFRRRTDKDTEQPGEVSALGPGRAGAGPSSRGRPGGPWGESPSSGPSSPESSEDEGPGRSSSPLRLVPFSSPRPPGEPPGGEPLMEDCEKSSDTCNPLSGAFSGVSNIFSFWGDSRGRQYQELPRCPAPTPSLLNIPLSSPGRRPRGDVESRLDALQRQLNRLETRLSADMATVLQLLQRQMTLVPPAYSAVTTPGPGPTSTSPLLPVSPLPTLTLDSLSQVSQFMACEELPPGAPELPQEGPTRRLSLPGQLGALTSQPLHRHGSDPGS
row,SMILES,"hERG current change (%, negative = inhibition) at 10uM [%]"
1,COc1cc(C#Cc2c(-c3cncn3C)n(C)c3ccc(-c4ccc5[nH]ccc5c4)cc23)cc(OC)c1,12.4
2,Cc1ccc(-c2c(C#N)c(N)nc3c2CCCC3)s1,7.08
3,CC(C)c1onc(C(=O)N2CCC(C(N)=O)CC2)c1[N+](=O)[O-],11.7
4,Cc1cnc(C(=O)Nc2nccs2)cn1,-5.08
5,CCCCn1c(N)c(N(CC(C)C)C(=O)c2cccc(S(=O)(=O)N3CCN(C)CC3)c2)c(=O)[nH]c1=O,6.33
6,CCOc1ccc(-c2cc(CCCC(=O)NCCc3ccccc3)no2)cc1,0.847
7,NC(=O)[C@H]1CC2(CC(c3cccc(NC(=O)[C@H]4CCC(=O)N4)c3)=NO2)CN1C(=O)CC(c1ccccc1)c1ccccc1 (some centres unmarked),-10.2
8,O=C(O)CC12CSc3[nH]c(=O)sc3C1c1ccccc1OC2=O (centres unmarked),12.7
9,Cc1ccc(C)c(N(CC(=O)N(C)C)S(C)(=O)=O)c1,9.38
10,COc1cccc(NC(=O)c2ccccc2C(F)(F)F)c1,18.7
11,COc1ccc(OCC(=O)N2CCN(CC3CC4C=CC3C4)CC2)cc1 (centres unmarked),-26.6
12,O=C(CCNS(=O)(=O)c1ccc(Br)cc1)NCc1cccs1,-21.3
13,NC(=S)Nc1cccc(-c2n[nH]c(=S)o2)c1,17.2
14,CC(C)CN(CC(C)C)S(=O)(=O)N1CCC(C(=O)NCCc2ccc(Cl)cc2)CC1,11.3
15,CN1CCN(C(=S)NC(=O)/C=C/c2cccc3ccccc23)CC1,-1.99
16,COc1ccc(-c2noc(CCCC(=O)NCCc3ccccc3)n2)cc1OC,-1.81
17,Cn1c(CC(=O)NNC(=O)c2cccnc2)nc2ccccc21,4.23
18,CN(C)Cc1c(O)ccc2[nH]cnc12.Cl,-0.964
19,CC(C)N1CCc2c(sc(NC(=O)CCS(=O)(=O)c3ccccc3)c2C(N)=O)C1.Cl,-26
20,CC1CCN(CC(O)COc2cccc(F)c2)CC1 (centres unmarked),-24.8
21,COCC1CCN(C(=O)c2ccc3oc(CCCc4ccccc4)nc3c2)C1 (centres unmarked),-42.7
22,O=C(c1ccccc1)c1sc(N2CCOCC2)nc1-c1ccccc1,-19.5
23,COC(=O)Cn1cnc2c(cnn2-c2ccccc2)c1=O,1.49

row,SMILES,"hERG current change (%, negative = inhibition) at 10uM [%]"
1,COc1ccc(NC(=S)NCCc2c[nH]c3ccc(OC)cc23)c(OC)c1,-16.3
2,COc1ccc(Cl)cc1N(CC(=O)Nc1ccccc1C(=O)N1CCCC1)S(C)(=O)=O,-13.6
3,COc1ccccc1NC(=O)Nc1cccnc1,6.32
4,CC1(C)NC(=O)N(CC(O)COc2cccc(F)c2)C1=O (centres unmarked),2.89
5,COc1ccc(OC)c(C2=NOC(C(=O)N3CCC4(CC3)OCCO4)C2)c1 (centres unmarked),5.15
6,CCOC(=O)c1ccc(NC(=O)Cn2cccc2)cc1,-8.88
7,Cc1cnc(CNC(=O)c2ccc3oc(C(C)C)nc3c2)[nH]1,0.439
8,Cc1ccc(S(=O)(=O)N2CCCCC2C(=O)NCc2ccco2)cc1 (centres unmarked),-21.2
9,Cc1[nH]nc2c1C(c1cccs1)C1=C(CC(C)(C)CC1=O)N2 (centres unmarked),25
10,COc1ccc(/C=C(/NC(=O)c2ccccc2)C(=O)NCc2ccncc2)cc1,-44.5
11,CCNC(=S)/N=C(\N)Nc1nc(C)c2cc(C)ccc2n1,12.5
12,COc1cc(CN2CCNC(=O)C2CC(=O)N(C)Cc2ncc[nH]2)cc(OC)c1 (centres unmarked),28.6
13,O=C(c1ccccn1)N1CCN(S(=O)(=O)c2ccc(F)cc2)CC1,3.65
14,Cc1nc(NC(=O)c2ccc(-c3cc4ccccc4oc3=O)cc2)ccc1Br,-2.99
15,CNCC(=O)O,-3.15
16,COc1ccccc1C(=O)Nc1onc(C)c1C#N,22.5
17,Cc1ccc(C)c(C(=O)COC(=O)Cn2[nH]c(=O)c3ccccc3c2=O)c1,5.51
18,C/C=C/Cn1c(N(C)Cc2ccccc2)nc2c1c(=O)[nH]c(=O)n2C,-24.3
19,CN1CCN(C(=O)c2ccc3c(c2)N(Cc2ccc(F)cc2)C(=O)c2ccccc2S3=O)CC1 (centres unmarked),11.8
20,O=C(O)CN(c1ccccn1)S(=O)(=O)c1ccc(Cl)cc1,8.28
21,CCOc1ccc(CCNC(=O)COC(=O)c2cccc(OC)c2O)cc1OCC,8.17
22,COc1ccc(NC(=O)c2sc(Cl)nc2-c2ccccc2)cc1,9.44
23,Cc1ccc(NC(=O)/C(=C/c2ccc([N+](=O)[O-])cc2)NC(=O)c2ccccc2)cc1,-12

row,SMILES,"hERG current change (%, negative = inhibition) at 10uM [%]"
1,CCCc1cc(=O)n2[nH]c(-c3cc(OC)c(OC)c(OC)c3)nc2n1,5.93
2,O=C1CCN(C(=S)NCc2ccccc2)CC1,13.7
3,O=S(=O)(NNc1ccc(F)cc1F)c1cccc(Cl)c1,9.49
4,N#Cc1ccc(NC(=O)COC(=O)CCc2ccc(S(=O)(=O)N3CCCCC3)cc2)cc1,-23.8
5,O=C(NCCc1ccccc1F)/C(=C/c1cccnc1)NC(=O)c1ccccc1,-52.2
6,CCCCCOC(=O)C1=C(C)Nc2nnnn2C1c1ccccc1Cl (centres unmarked),15.5
7,N#CC(c1ccc(Cl)nn1)c1ccc(Cl)cc1Cl (centres unmarked),-5.74
8,CCCC(=O)Nc1nc2c(OC)ccc(OC)c2s1,-6.42
9,Cc1ccc(NC(=O)N(CCC(=O)O)Cc2ccccc2)cc1,12.2
10,O=C(CCCn1c(=S)[nH]c2ccc(Br)cc2c1=O)NCC1CCCO1 (centres unmarked),15.8
11,CCc1nc(SCC(=O)Nc2cc(C)on2)c2c(=O)n(C)c(=O)n(C)c2n1,20.6
12,COc1ccc(CCC(=O)OCC(=O)N(CC(C)C)c2c(N)n(Cc3ccccc3)c(=O)[nH]c2=O)cc1,0.813
13,Fc1ccc(CSc2ccc3nnc(-c4cccnc4)n3n2)cc1,-71.5
14,COc1cc2c(cc1OC)C(C)N(C(=O)c1cc3ccccc3o1)CC2 (centres unmarked),-36.3
15,N#Cc1c2n(c(=S)n(-c3ccc(F)cc3)c1=O)CCCCC2,4.03
16,CCOC(=O)c1ccc(Oc2coc3cc(O)ccc3c2=O)cc1,17.6
17,COc1ccc(-c2nnc(N(C)C(=O)c3cccnc3)s2)cc1,-0.307
18,Cc1ccc(C)c(S(=O)(=O)N2CCN(C(=O)[C@@H]3CCCN3C(=O)c3cccs3)CC2)c1,-17
19,CCCc1nc(SCC(=O)N2c3ccccc3CC2C)c2c(C)c(C)sc2n1 (centres unmarked),14.1
20,O=C(CSC(=S)N1CCOCC1)Nc1ncc2c(n1)CC(c1ccco1)CC2=O (centres unmarked),4.95
21,O=C(NC1CC1)C1CCN(c2ncccn2)CC1,-2.31
22,O=c1[nH]n(-c2ccccc2Cl)c(=O)c2ccccc12,11.5
23,COc1ccc(-c2nnc(COc3ccc4ccccc4c3)o2)cc1OC,-3.08

row,SMILES,"hERG current change (%, negative = inhibition) at 10uM [%]"
1,Cc1ccc(NC2CCCN(C(=O)c3cn4cc(Cl)ccc4n3)C2)cc1C (centres unmarked),1.82
2,CN(CC(=O)NNC(=O)Cc1ccccc1F)S(=O)(=O)c1ccc(Cl)cc1,-8.76
3,CCC1(c2ccccc2)NC(=O)N(CC(=O)N(C)CC(=O)Nc2c(C)cccc2C)C1=O (centres unmarked),19
4,COc1cc(/C=N/NC(=O)C(=O)NCC2CCCO2)cc(Cl)c1O (centres unmarked),31.8
5,CC(C)NC(=O)NC(=O)COC(=O)c1ccc([N+](=O)[O-])cc1Cl,-25.1
6,CCOC(=O)c1c(NC(=O)CN2C(=O)CN(C)C2=O)sc(C)c1C,4.06
7,CC(=O)c1ccc(N2CCN(C(=O)CCCn3c(=O)[nH]c4ccccc4c3=O)CC2)cc1,15.3
8,CC(=O)C1=C(O)C(=O)N(CCC(=O)O)C1c1ccccc1Cl (centres unmarked),-6.52
9,Cn1nc(-c2ccc3c(c2)OCCO3)c2ccccc2c1=O,2.43
10,Cc1ccc(S(=O)(=O)N(CC(=O)N/N=C/c2ccco2)c2cc(Cl)cc(Cl)c2)cc1,-10.7
11,CCCc1nc(SCC(=O)NCc2ccco2)c2c(=O)n(C)c(=O)n(C)c2n1,0.943
12,O=C(Nc1cc(C(F)(F)F)ccc1-n1cncn1)c1ccc(Br)cc1,4.25
13,COc1ccc(C2C(C#N)=C(C)NC3=C2C(=O)CC(C)(C)C3)c(OC)c1 (centres unmarked),-6.3
14,COC(=O)c1cc(Sc2cccc(Cl)c2Cl)ccn1,-20.8
15,CCOc1ccc(N2CC(C(=O)Nc3ccc(S(=O)(=O)Nc4nccs4)cc3)CC2=O)cc1 (centres unmarked),13.6
16,O=C(NC1CC1)C1=C[C@@H](c2ccccc2)C[C@@H](OCCCCO)O1,9.71
17,COc1ccc(NS(=O)(=O)c2c(C(=O)N3CCCCCC3)c(C)n(C)c2C)cc1OC,17.4
18,Cc1ncc(CNC(=O)N(CCCl)N=O)c(N)n1.Cl,5.11
19,O=C1OC(C(=O)NCc2ccccc2)Cc2ccccc21 (centres unmarked),7.98
20,O=c1[nH]c2cc3c(cc2cc1CN(Cc1ccco1)C(=S)NCCCN1CCOCC1)OCCO3,-14.7
